# According to the supplement of paper PMC12355420:
# Where a name gives a salt, the structure may show the parent alone. The list shows a part of the results. Rule as the data show it: active = 0.5 or less and inactive = the rest. Many values rest on one well or one pass, so single values are uncertain.
# Tests used:
# Conditions in all cases: 50 µM; 24 h
# [1] = system: HeLa VPS33A reporter cells; assay: relative cell viability (CellMask signal) vs DMSO (fraction of DMSO); higher = less cytotoxic;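 also: primary screen of an FDA-approved drug library in HeLa reporter cells in 96-well format, CellMask signal normalized to DMSO-treated wells set as 1, under 0.5 deemed highly cytotoxic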
# [2] = system: HeLa VPS33A R498W KI + HA-SDC1-FLAG; assay: relative GAG core protein HA-SDC1 amount per cell number vs DMSO (fraction of DMSO); higher = more SDC1 (GAG core protein);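 also: HA-SDC1 level read out by In-Cell Western staining with an anti-HA antibody against the N-terminal tag, screening FDA-approved library drugs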
# [3] = system: HeLa VPS33A KO + NLuc-VPS33A R498W; assay: relative mutant VPS33A R498W amount (NanoLuc luminescence) vs DMSO (fraction of DMSO); HeLa model of a glycosaminoglycan (GAG) storage disease; KI is knock-in and KO knock-out; SDC1 is syndecan 1; higher = higher mutant VPS33A level;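 also: screen of an FDA-approved drug library, NanoLuc luminescence read after lysing the treated cells, taken as a measure of mutant VPS33A protein stability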
SMILES,relative cell viability [1],relative GAG core protein HA-SDC1 amount per cell number [2],relative mutant VPS33A R498W amount [3]
CC[C@H](c1ccc(O)cc1)[C@@H](CC)c1ccc(O)cc1 [Hexestrol],1.21,inactive: 0.813,0.0555
C[C@H](CCC(=O)NCCS(=O)(=O)O)[C@H]1CC[C@H]2[C@@H]3[C@@H](O)C[C@@H]4C[C@H](O)CC[C@]4(C)[C@H]3CC[C@]12C [Sodium Tauroursodeoxycholate (TUDC)],1.06,inactive: 1.04,1.43
CCCCCCCCCCCC(=O)O [Lauric Acid],1.09,inactive: 0.933,1.58
CCC(=O)OCC(=O)[C@@]1(OC(=O)CC)[C@@H](C)C[C@H]2[C@@H]3CCC4=CC(=O)C=C[C@]4(C)[C@@]3(Cl)[C@@H](O)C[C@@]21C [Beclomethasone dipropionate],1.19,inactive: 0.501,0.497
Cc1ccnc(NS(=O)(=O)c2ccc(N)cc2)n1 [Sulfamerazine],1.21,inactive: 0.885,0.972
CNS(=O)(=O)Cc1ccc2[nH]cc(CCN(C)C)c2c1 [Sumatriptan Succinate],0.969,inactive: 1.43,1.1
O=C(O)CCNC(=O)c1ccc(/N=N/c2ccc(O)c(C(=O)O)c2)cc1 [Balsalazide],0.959,inactive: 0.87,1.08
CC[C@H](C)[C@H](NC(=O)[C@H](CCC(=O)O)NC(=O)[C@H](CCC(=O)O)NC(=O)[C@H](Cc1ccccc1)NC(=O)[C@H](CC(=O)O)NC(=O)CNC(=O)[C@H](CC(N)=O)NC(=O)CNC(=O)CNC(=O)CNC(=O)CNC(=O)[C@@H]1CCCN1C(=O)[C@H](CCCNC(=N)N)NC(=O)[C@@H]1CCCN1C(=O)[C@H](N)Cc1ccccc1)C(=O)N1CCC[C@H]1C(=O)N[C@@H](CCC(=O)O)C(=O)N[C@@H](CCC(=O)O)C(=O)N[C@@H](Cc1ccc(O)cc1)C(=O)N[C@@H](CC(C)C)C(=O)O [Bivalirudin Trifluoroacetate],1.14,inactive: 1.23,1.37
"O=C(O)c1ccc(O)c(O)c1 [3,4-Dihydroxybenzoic acid]",0.988,inactive: 0.84,1.22
Oc1ccc(OC2CCCCO2)cc1 (stereo not given) [Deoxyarbutin],1.03,inactive: 0.761,1.12
COc1c(N2C[C@@H]3CCCN[C@@H]3C2)c(F)cc2c(=O)c(C(=O)O)cn(C3CC3)c12 [Moxifloxacin HCl],0.993,inactive: 1.37,2.13
Cc1c(O)c(=O)ccn1C [Deferiprone],0.972,inactive: 0.603,1.34
Nc1ncnc2c1ncn2[C@@H]1O[C@H](COP(=O)(O)OP(=O)(O)OP(=O)(O)O)[C@@H](O)[C@H]1O [ATP disodium salt],1.1,inactive: 0.924,0.983
O=C1CC2(CCCC2)CC(=O)N1CCCCN1CCN(c2ncccn2)CC1 [Buspirone HCl],1.05,inactive: 0.999,0.986
NC(=O)N[C@@H](CCC(=O)O)C(=O)O [N-Carbamyl-L-glutamic acid],1.01,inactive: 0.907,1.39
